Experimental data taken from paper PMC12040169 (PLOS Biology, 2025).
The other results are listed elsewhere or left out.

Tested on: T1, C. trachomatis L2/434/Bu expressing GFP (CTL2-GFP)
T1 construct: L2/434/Bu GFP intracellular growth in HeLa cells
Parameters: species or system HeLa; C. trachomatis total inclusion area by high-content imaging, normalised to DMSO
Conditions: total inclusion area; 28.5 h, 10 µM; inhibitor
Procedure, shortened: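 High-content images of fixed, Hoechst-stained infected cultures supply inclusion area and count (growth) plus nuclei number (viability), complementing bulk GFP/resorufin fluorescence. MIC determination is unchanged from the primary assay.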

SMILES	% of control remaining
Cc1cc(C(F)(F)F)c2c(NCc3ccoc3)n[nH]c2n1 [CBK284698]	39.9555
CC1CCCCN1S(=O)(=O)c1cccc2nonc12 (stereo not shown) [CBK261723]	106.912
Fc1cccc(F)c1CN1CCN(CCc2ccccc2)CC1 [CBK126422]	109.674
CCCC/C=C/c1cnc2[nH]c(=O)n(Cc3ccccn3)c2n1 [CBK064365]	136.075
Cc1ccccc1CN1CCN(CC(=O)Nc2ccccc2C(N)=O)CC1 [CBK270296]	88.6597
CN(C)CCN(C)C(=O)c1ccc(-c2cccc(C(=O)NCCO)c2)nc1NCC1CC1 [CBK076603]	78.0008
CC[C@H](Cn1c(=O)oc2ccccc21)NC(=O)C1CCCC1 [CBK284542]	53.4149
COc1ccccc1-c1cc(C(F)F)nc(S)c1C#N [CBK288358]	98.3262
COc1ccc(C2NC(C(=O)O)C3C(=O)N(c4ccc(C)cc4)C(=O)C23)c(OC)c1 (stereo not shown) [CBK287233]	107.599
c1ccc([C@@H]2CN(Cc3cccnc3)C[C@H]2c2cc[nH]n2)cc1 [CBK285160]	99.3869
CC(C)n1nnnc1-c1ccccc1NS(=O)(=O)C1CC1 [CBK305509]	27.636
CCn1c(CNC(=O)c2cn3ccc(C)cc3n2)nc2ccccc21 [CBK281394]	80.0904
O=C(NCc1ccccn1)C1CCC(Cn2c(=S)[nH]c3ccccc3c2=O)CC1 (stereo not shown) [CBK266645]	116.879
O=C(O)COc1c(-c2ccco2)oc2ccccc2c1=O [CBK269262]	96.7308
CC(=O)N[C@@H](Cc1c[nH]cn1)C(=O)Nc1cc2ccccc2c(Br)n1 [CBK063302]	102.417
CCOC(=O)c1cnn(C2CCCN(Cc3cncs3)C2)c1 (stereo not shown) [CBK304039]	41.5847
COCC1CN(C(=O)Nc2ncc(Cc3ccc(C)c(Cl)c3)s2)CCO1 (stereo not shown) [CBK306286]	60.3355
Cc1cccc(-c2ncc(NC(=O)CC3OC(=O)c4ccccc43)nc2-c2ccc(N)cc2)c1 (stereo not shown) [CBK036749]	117.018
COc1cc2nc(NC(=O)C3COc4ccccc4O3)sc2cc1OC (stereo not shown) [CBK287702]	92.9141
CS(=O)(=O)Nc1nccnc1OC1CCN(CCc2ccccc2)CC1 [CBK084279]	86.0659
COc1ccc([C@@]23CC[C@@H](NC(=O)Nc4ncc(Cl)s4)C[C@@H]2N(C)CC3)cc1OC [CBK051620T]	91.1531
O=C1CO[C@H]2CN(Cc3ncc[nH]3)C[C@H]2N1Cc1ccncc1 [CBK289259]	94.0505
